Assay results published in the supplement of paper PMC11876631.
Numbering of substitutions follows the chain as printed. Names may count otherwise. ± gives the standard deviation of the averaged measurements. Laboratory Escherichia coli strains with one amino-acid change in an essential protein, pooled on minimal glucose agar with carbenicillin or gentamicin at twice the control MIC (plus kanamycin and chloramphenicol for the plasmids), 48 h. Fold change of barcode share against drug-free plates; higher = less susceptible. Active = above 20 in both replicates (the paper's putatively resistant). '<' = one read or none on drug, '>' = one read or none on a drug-free plate. Shares are relative, so most strains fall below 1 when a few take over. Listed are strains with at least 15 reads on both drug-free plates, and hits; most hits rest on fewer reference reads. Replicate rank correlation about 0.5. Edits are read from barcodes.

B1: can I116A (protein)
chain: MKDIDTLISNNALWSKMLVEEDPGFFEKLAQAQKPRFLWIGCSDSRVPAERLTGLEPGELFVHRNVANLVIHTDLNCLSVVQYAVDVLEVEHIIICGHYGCGGVQAAVENPELGLANNWLLHIRDIWFKHSSLLGEMPQERRLDTLCELNVMEQVYNLGHSTIMQSAWKRGQKVTIHGWAYGIHDGLLRDLDVTATNRETLEQRYRHGISNLKLKHANHK
B2: trpC V446Q (protein)
chain: MMQTVLAKIVADKAIWVEARKQQQPLASFQNEVQPSTRHFYDALQGARTAFILECKKASPSKGVIRDDFDPARIAAIYKHYASAISVLTDEKYFQGSFNFLPIVSQIAPQPILCKDFIIDPYQIYLARYYQADACLLMLSVLDDDQYRQLAAVAHSLEMGVLTEVSNEEEQERAIALGAKVVGINNRDLRDLSIDLNRTRELAPKLGHNVTVISESGINTYAQVRELSHFANGFLIGSALMAHDDLHAAVRRVLLGENKVCGLTRGQDAKAAYDAGAIYGGLIFVATSPRCVNVEQAQEVMAAAPLQYVGVFRNHDIADVVDKAKVLSLAAVQLHGNEEQLYIDTLREALPAHVAIWKALSVGETLPAREFQHVDKYVLDNGQGGSGQRFDWSLLNGQSLGNVLLAGGLGADNCVEAAQTGCAGLDFNSAVESQPGIKDARLLASQFQTLRAY
B3: trpC V446D (protein)
chain: B2 chain with Q446D
B4: trpC L405W (protein)
chain: B2 chain with L405W, Q446V
B5: trpC L405A (protein)
chain: B2 chain with L405A, Q446V
B6: trpC V446P (protein)
chain: B2 chain with Q446P

These proteins were tested against Escherichia coli (laboratory strain) (assay: barcode share on antibiotic plates over drug-free plates; higher = less susceptible). Details: antibiotic: carbenicillin; 2× MIC (3.1 µg/mL).
Method: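 A pool of E. coli strains, each edited to carry one amino-acid change in an essential protein, was grown for 48 h on minimal glucose agar with or without antibiotic; strain barcodes were sequenced; mean of two replicates.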
For B1, the “fold change of barcode share” value was 0.85 ± 0.37. B2 was tested, and the “fold change of barcode share” value was 0.44 ± 0.0054. B3 was tested, and the “fold change of barcode share” value was 0.659 ± 0.14. With B4 the “fold change of barcode share” value was 2.52 ± 0.29. With B5 the “fold change of barcode share” value was 0.671 ± 0.078. For B6, the “fold change of barcode share” value was 0.489 ± 0.072.

Same assay, conditions: antibiotic: gentamicin; 2× MIC (MIC 0.45 µg/mL)
For B1, the “fold change of barcode share” value was less than 0.00899. B2 was tested, and the “fold change of barcode share” value was 0.0155 ± 0.0096. B3 was tested, and the “fold change of barcode share” value was 0.0234 ± 0.014. With B5 the “fold change of barcode share” value was 0.0137 ± 0.00092. With B6 the “fold change of barcode share” value was 0.0136 ± 0.008.
